± gives the standard deviation of the averaged measurements. Restriction of a single-cycle SIVsab GFP reporter by TRIM5α v1-loop variants in CRFK cells. Human variants: read share among cells still uninfected after two challenges over input, higher = gained restriction. Rhesus variants: share among infected cells over input, higher = lost restriction. Reporter dose not given per row. No active / inactive call per row; the paper calls a change when both replicates lie above its controls (mean + 2 SD of stop or wild-type variants, or the top frameshift score). Residues outside the varied loop are taken from Swiss-Prot. The paper reads the human single-substitution scores as noise; they and the rhesus combinations repeat poorly (rank correlation 0.3 to 0.4), indel scores repeat only for the top variants, rhesus substitutions well (0.9).
These sequences were tested on SIVsab (simian immunodeficiency virus of sabaeus monkeys), single-cycle GFP reporter, in CRFK cells (assay: enrichment among infected cells over input (fold); higher = weaker restriction). Conditions: library: human / rhesus combinations.
Procedure: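 Pools of CRFK cells expressing variants of the TRIM5α v1 loop were challenged with the single-cycle reporter, sorted by GFP and sequenced; mean of two replicates.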

Sequence | enrichment
MASGILLNVKEEVTCPICLELLTEPLSLHCGHSFCQACITANHKKSMLYKEGERSCPVCRISYQPENIQPNRHVANIVEKLREVKLSPEEGQKVDHCARHGEKLLLFCQEDSKVICWLCERSQEHRGHHTFLMEEVAQEYHVKLQTALEMLRQKQQEAEKLEADIREEKASWKIQIDYDKTNVSADFEQLREILDWEESNELQNLEKEEEDILKSLTKSETEMVQQTQYMRELISELEHRLQGSMMDLLQGVDGIIKRIENMTLKKPKTFHKNQRRVFRAPDLKGMLDMFRELTDARRYWVDVTLAPNNISHAVIAEDKRQVSSRNPQIMYGARGTLFPSFTNFNYCTGVLGSQSITSGKHYWEVDVSKKSAWILGVCAGFQSDAMYNIEQNENYQPKYGYWVIGLQEGVKYSVFQDGSSHTPFAPFIVPLSVIICPDRVGVFVDYEACTVSFFNITNHGFLIYKFSQCSFSKPVFPYLNPRKCTVPMTLCSPSS [rhesus TRIM5α, 332-344 = GARGTLFPSFT] | 1.32 ± 0.58
MASGILLNVKEEVTCPICLELLTEPLSLHCGHSFCQACITANHKKSMLYKEGERSCPVCRISYQPENIQPNRHVANIVEKLREVKLSPEEGQKVDHCARHGEKLLLFCQEDSKVICWLCERSQEHRGHHTFLMEEVAQEYHVKLQTALEMLRQKQQEAEKLEADIREEKASWKIQIDYDKTNVSADFEQLREILDWEESNELQNLEKEEEDILKSLTKSETEMVQQTQYMRELISELEHRLQGSMMDLLQGVDGIIKRIENMTLKKPKTFHKNQRRVFRAPDLKGMLDMFRELTDARRYWVDVTLAPNNISHAVIAEDKRQVSSRNPQIMYGAPGTRYPSFVNFNYCTGVLGSQSITSGKHYWEVDVSKKSAWILGVCAGFQSDAMYNIEQNENYQPKYGYWVIGLQEGVKYSVFQDGSSHTPFAPFIVPLSVIICPDRVGVFVDYEACTVSFFNITNHGFLIYKFSQCSFSKPVFPYLNPRKCTVPMTLCSPSS [rhesus TRIM5α, 332-344 = GAPGTRYPSFV] | 0.298 ± 0.28
MASGILLNVKEEVTCPICLELLTEPLSLHCGHSFCQACITANHKKSMLYKEGERSCPVCRISYQPENIQPNRHVANIVEKLREVKLSPEEGQKVDHCARHGEKLLLFCQEDSKVICWLCERSQEHRGHHTFLMEEVAQEYHVKLQTALEMLRQKQQEAEKLEADIREEKASWKIQIDYDKTNVSADFEQLREILDWEESNELQNLEKEEEDILKSLTKSETEMVQQTQYMRELISELEHRLQGSMMDLLQGVDGIIKRIENMTLKKPKTFHKNQRRVFRAPDLKGMLDMFRELTDARRYWVDVTLAPNNISHAVIAEDKRQVSSRNPQIMYQAPGTRYTFPTLVNFNYCTGVLGSQSITSGKHYWEVDVSKKSAWILGVCAGFQSDAMYNIEQNENYQPKYGYWVIGLQEGVKYSVFQDGSSHTPFAPFIVPLSVIICPDRVGVFVDYEACTVSFFNITNHGFLIYKFSQCSFSKPVFPYLNPRKCTVPMTLCSPSS [rhesus TRIM5α, 332-344 = QAPGTRYTFPTLV] | 4.62 ± 3.5
MASGILLNVKEEVTCPICLELLTEPLSLHCGHSFCQACITANHKKSMLYKEGERSCPVCRISYQPENIQPNRHVANIVEKLREVKLSPEEGQKVDHCARHGEKLLLFCQEDSKVICWLCERSQEHRGHHTFLMEEVAQEYHVKLQTALEMLRQKQQEAEKLEADIREEKASWKIQIDYDKTNVSADFEQLREILDWEESNELQNLEKEEEDILKSLTKSETEMVQQTQYMRELISELEHRLQGSMMDLLQGVDGIIKRIENMTLKKPKTFHKNQRRVFRAPDLKGMLDMFRELTDARRYWVDVTLAPNNISHAVIAEDKRQVSSRNPQIMYGARGTRFTFPTFVNFNYCTGVLGSQSITSGKHYWEVDVSKKSAWILGVCAGFQSDAMYNIEQNENYQPKYGYWVIGLQEGVKYSVFQDGSSHTPFAPFIVPLSVIICPDRVGVFVDYEACTVSFFNITNHGFLIYKFSQCSFSKPVFPYLNPRKCTVPMTLCSPSS [rhesus TRIM5α, 332-344 = GARGTRFTFPTFV] | 1.8 ± 0.11
MASGILLNVKEEVTCPICLELLTEPLSLHCGHSFCQACITANHKKSMLYKEGERSCPVCRISYQPENIQPNRHVANIVEKLREVKLSPEEGQKVDHCARHGEKLLLFCQEDSKVICWLCERSQEHRGHHTFLMEEVAQEYHVKLQTALEMLRQKQQEAEKLEADIREEKASWKIQIDYDKTNVSADFEQLREILDWEESNELQNLEKEEEDILKSLTKSETEMVQQTQYMRELISELEHRLQGSMMDLLQGVDGIIKRIENMTLKKPKTFHKNQRRVFRAPDLKGMLDMFRELTDARRYWVDVTLAPNNISHAVIAEDKRQVSSRNPQIMYGAPGTRYTFPSFTNFNYCTGVLGSQSITSGKHYWEVDVSKKSAWILGVCAGFQSDAMYNIEQNENYQPKYGYWVIGLQEGVKYSVFQDGSSHTPFAPFIVPLSVIICPDRVGVFVDYEACTVSFFNITNHGFLIYKFSQCSFSKPVFPYLNPRKCTVPMTLCSPSS [rhesus TRIM5α, 332-344 = GAPGTRYTFPSFT] | 1.56 ± 0.55
MASGILLNVKEEVTCPICLELLTEPLSLHCGHSFCQACITANHKKSMLYKEGERSCPVCRISYQPENIQPNRHVANIVEKLREVKLSPEEGQKVDHCARHGEKLLLFCQEDSKVICWLCERSQEHRGHHTFLMEEVAQEYHVKLQTALEMLRQKQQEAEKLEADIREEKASWKIQIDYDKTNVSADFEQLREILDWEESNELQNLEKEEEDILKSLTKSETEMVQQTQYMRELISELEHRLQGSMMDLLQGVDGIIKRIENMTLKKPKTFHKNQRRVFRAPDLKGMLDMFRELTDARRYWVDVTLAPNNISHAVIAEDKRQVSSRNPQIMYGAPGTLYTFQTLTNFNYCTGVLGSQSITSGKHYWEVDVSKKSAWILGVCAGFQSDAMYNIEQNENYQPKYGYWVIGLQEGVKYSVFQDGSSHTPFAPFIVPLSVIICPDRVGVFVDYEACTVSFFNITNHGFLIYKFSQCSFSKPVFPYLNPRKCTVPMTLCSPSS [rhesus TRIM5α, 332-344 = GAPGTLYTFQTLT] | 0.782 ± 0.38
MASGILLNVKEEVTCPICLELLTEPLSLHCGHSFCQACITANHKKSMLYKEGERSCPVCRISYQPENIQPNRHVANIVEKLREVKLSPEEGQKVDHCARHGEKLLLFCQEDSKVICWLCERSQEHRGHHTFLMEEVAQEYHVKLQTALEMLRQKQQEAEKLEADIREEKASWKIQIDYDKTNVSADFEQLREILDWEESNELQNLEKEEEDILKSLTKSETEMVQQTQYMRELISELEHRLQGSMMDLLQGVDGIIKRIENMTLKKPKTFHKNQRRVFRAPDLKGMLDMFRELTDARRYWVDVTLAPNNISHAVIAEDKRQVSSRNPQIMYGARGTLFQSLTNFNYCTGVLGSQSITSGKHYWEVDVSKKSAWILGVCAGFQSDAMYNIEQNENYQPKYGYWVIGLQEGVKYSVFQDGSSHTPFAPFIVPLSVIICPDRVGVFVDYEACTVSFFNITNHGFLIYKFSQCSFSKPVFPYLNPRKCTVPMTLCSPSS [rhesus TRIM5α, 332-344 = GARGTLFQSLT] | 0.626 ± 0.88
MASGILLNVKEEVTCPICLELLTEPLSLHCGHSFCQACITANHKKSMLYKEGERSCPVCRISYQPENIQPNRHVANIVEKLREVKLSPEEGQKVDHCARHGEKLLLFCQEDSKVICWLCERSQEHRGHHTFLMEEVAQEYHVKLQTALEMLRQKQQEAEKLEADIREEKASWKIQIDYDKTNVSADFEQLREILDWEESNELQNLEKEEEDILKSLTKSETEMVQQTQYMRELISELEHRLQGSMMDLLQGVDGIIKRIENMTLKKPKTFHKNQRRVFRAPDLKGMLDMFRELTDARRYWVDVTLAPNNISHAVIAEDKRQVSSRNPQIMYQARGTLYTFQSFTNFNYCTGVLGSQSITSGKHYWEVDVSKKSAWILGVCAGFQSDAMYNIEQNENYQPKYGYWVIGLQEGVKYSVFQDGSSHTPFAPFIVPLSVIICPDRVGVFVDYEACTVSFFNITNHGFLIYKFSQCSFSKPVFPYLNPRKCTVPMTLCSPSS [rhesus TRIM5α, 332-344 = QARGTLYTFQSFT] | 2 ± 0.64
MASGILLNVKEEVTCPICLELLTEPLSLHCGHSFCQACITANHKKSMLYKEGERSCPVCRISYQPENIQPNRHVANIVEKLREVKLSPEEGQKVDHCARHGEKLLLFCQEDSKVICWLCERSQEHRGHHTFLMEEVAQEYHVKLQTALEMLRQKQQEAEKLEADIREEKASWKIQIDYDKTNVSADFEQLREILDWEESNELQNLEKEEEDILKSLTKSETEMVQQTQYMRELISELEHRLQGSMMDLLQGVDGIIKRIENMTLKKPKTFHKNQRRVFRAPDLKGMLDMFRELTDARRYWVDVTLAPNNISHAVIAEDKRQVSSRNPQIMYGAPGTRYTFQTLTNFNYCTGVLGSQSITSGKHYWEVDVSKKSAWILGVCAGFQSDAMYNIEQNENYQPKYGYWVIGLQEGVKYSVFQDGSSHTPFAPFIVPLSVIICPDRVGVFVDYEACTVSFFNITNHGFLIYKFSQCSFSKPVFPYLNPRKCTVPMTLCSPSS [rhesus TRIM5α, 332-344 = GAPGTRYTFQTLT] | 1.05 ± 0.41
MASGILLNVKEEVTCPICLELLTEPLSLHCGHSFCQACITANHKKSMLYKEGERSCPVCRISYQPENIQPNRHVANIVEKLREVKLSPEEGQKVDHCARHGEKLLLFCQEDSKVICWLCERSQEHRGHHTFLMEEVAQEYHVKLQTALEMLRQKQQEAEKLEADIREEKASWKIQIDYDKTNVSADFEQLREILDWEESNELQNLEKEEEDILKSLTKSETEMVQQTQYMRELISELEHRLQGSMMDLLQGVDGIIKRIENMTLKKPKTFHKNQRRVFRAPDLKGMLDMFRELTDARRYWVDVTLAPNNISHAVIAEDKRQVSSRNPQIMYGAPGTLYTFQSFVNFNYCTGVLGSQSITSGKHYWEVDVSKKSAWILGVCAGFQSDAMYNIEQNENYQPKYGYWVIGLQEGVKYSVFQDGSSHTPFAPFIVPLSVIICPDRVGVFVDYEACTVSFFNITNHGFLIYKFSQCSFSKPVFPYLNPRKCTVPMTLCSPSS [rhesus TRIM5α, 332-344 = GAPGTLYTFQSFV] | 1.02 ± 0.21
MASGILLNVKEEVTCPICLELLTEPLSLHCGHSFCQACITANHKKSMLYKEGERSCPVCRISYQPENIQPNRHVANIVEKLREVKLSPEEGQKVDHCARHGEKLLLFCQEDSKVICWLCERSQEHRGHHTFLMEEVAQEYHVKLQTALEMLRQKQQEAEKLEADIREEKASWKIQIDYDKTNVSADFEQLREILDWEESNELQNLEKEEEDILKSLTKSETEMVQQTQYMRELISELEHRLQGSMMDLLQGVDGIIKRIENMTLKKPKTFHKNQRRVFRAPDLKGMLDMFRELTDARRYWVDVTLAPNNISHAVIAEDKRQVSSRNPQIMYGARGTRFQSLTNFNYCTGVLGSQSITSGKHYWEVDVSKKSAWILGVCAGFQSDAMYNIEQNENYQPKYGYWVIGLQEGVKYSVFQDGSSHTPFAPFIVPLSVIICPDRVGVFVDYEACTVSFFNITNHGFLIYKFSQCSFSKPVFPYLNPRKCTVPMTLCSPSS [rhesus TRIM5α, 332-344 = GARGTRFQSLT] | 1.34 ± 0.36
MASGILLNVKEEVTCPICLELLTEPLSLHCGHSFCQACITANHKKSMLYKEGERSCPVCRISYQPENIQPNRHVANIVEKLREVKLSPEEGQKVDHCARHGEKLLLFCQEDSKVICWLCERSQEHRGHHTFLMEEVAQEYHVKLQTALEMLRQKQQEAEKLEADIREEKASWKIQIDYDKTNVSADFEQLREILDWEESNELQNLEKEEEDILKSLTKSETEMVQQTQYMRELISELEHRLQGSMMDLLQGVDGIIKRIENMTLKKPKTFHKNQRRVFRAPDLKGMLDMFRELTDARRYWVDVTLAPNNISHAVIAEDKRQVSSRNPQIMYQAPGTLYTFQSFTNFNYCTGVLGSQSITSGKHYWEVDVSKKSAWILGVCAGFQSDAMYNIEQNENYQPKYGYWVIGLQEGVKYSVFQDGSSHTPFAPFIVPLSVIICPDRVGVFVDYEACTVSFFNITNHGFLIYKFSQCSFSKPVFPYLNPRKCTVPMTLCSPSS [rhesus TRIM5α, 332-344 = QAPGTLYTFQSFT] | 0.725 ± 0.066
